Measured values: PubChem BioAssay AID1224903 (Bradner/Qi Labs at DFCI, 2016)
Some of the results follow. Further columns of the screen follow, without active or inactive calls. The list favours compounds with an active or inconclusive main result.

biological target: Chromobox protein homolog 7 (Homo sapiens) (UniProt O95931); experiment: blockers of CBX7 binding to H3K27me3 peptide – biochemical, AlphaScreen, primary screen (AID 1224903); conditions: AlphaScreen His6-CBX7 / biotin-H3K27me3 peptide binding; measured here: z-score of CBX7 signal; stronger effect = lower value
UniProt O95931, sequence (O95931 whole entry, looked up): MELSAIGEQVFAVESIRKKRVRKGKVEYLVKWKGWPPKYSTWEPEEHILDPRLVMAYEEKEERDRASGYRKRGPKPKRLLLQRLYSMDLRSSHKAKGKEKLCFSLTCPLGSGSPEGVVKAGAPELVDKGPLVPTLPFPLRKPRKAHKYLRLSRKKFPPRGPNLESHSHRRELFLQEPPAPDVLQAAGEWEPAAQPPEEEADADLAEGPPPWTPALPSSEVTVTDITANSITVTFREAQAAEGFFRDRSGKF

| SMILES | z-score |
| --- | --- |
| Cc1ccc([N+](=O)[O-])cc1-c1[nH]c(-c2ccccc2F)nc1-c1ccccc1 | -0.525 |
| CC1CC(C)CN(S(=O)(=O)c2ccc(C(=O)Nc3nnc(C4CC4)o3)cc2)C1 (centres undefined) | -2.61 |
| CCOC(=O)c1[nH]cnc1C(=O)Nc1ccc(OC)cc1 | -11.1 |
| CCc1cc(-c2[nH]ncc2-c2ccc3c(c2)OCCO3)c(O)cc1OC | -13.2 |
| O=C1C2=C(Nc3ccccc3SC2c2ccc3c(c2)OCO3)c2ccccc21 (centres undefined) | -10 |
| COc1ccc(-c2nnc(Nc3cccc(O)c3)c3ccccc23)cc1 | -10.7 |
| COc1ccc(-c2csc(Nc3ccc(Oc4ccccc4)cc3)n2)cc1Br | -13.5 |
| N#Cc1nc(COc2ccc(Br)cc2)oc1N1CCCCCC1 | -3.65 |
| CCCCN(CCCC)S(=O)(=O)c1ccc(C(=O)Nc2nnc(COC)o2)cc1 | -1.47 |
| CCCCN(CCCC)S(=O)(=O)c1ccc(C(=O)Nc2nnc(C3CC3)o2)cc1 | -1.66 |
| Cc1cccc(NCC(O)Cn2c(C)c(C)c3ccccc32)c1 (centres undefined) | -0.914 |
| COc1ccc(-c2noc(N(C)CC(=O)Nc3cc(C)on3)n2)cc1 | -34.3 |
| CCc1ccccc1NC(=O)c1cccc2c1C(=O)N(c1ccc(OC)cc1)C2 | -15.9 |
| CCCCN(C)S(=O)(=O)c1ccc(C(=O)Nc2nnc(CC)o2)cc1 | -17.2 |
| Cc1ccccc1OCc1nc(C#N)c(N2CCN(c3ccccc3)CC2)o1 | -7.35 |
| c1ccc(-c2nnc(-c3ccccn3)nc2-c2ccccc2)cc1 | -1.65 |
| Cc1cccc(C)c1Nc1c(-c2ccccn2)nc2ccccn12 | -19.3 |
| CNCC(=O)Nc1c2c(nc3c1CCC3)CCCC2 | -6.89 |
| O=C(Nc1nc(N2C(=O)c3ccccc3C2=O)n(-c2ccccc2)n1)c1ccc(F)cc1 | -9.76 |
| CCN(CC)c1ccc(Nc2nc(-c3c(C)nc4sccn34)cs2)cc1 | -17.8 |
| COc1ccc(OC)c(NC(=O)c2c(NCc3sccc3C)sc3c2CCCC3)c1 | -10 |
| O=C(CCN1C(=O)COc2ccccc21)NCc1ccccn1 | -12.2 |
| CCOC(=O)N1CCC(NC(=O)c2cccc3c2C(=O)N(c2ccc(OC)cc2)C3)CC1 | -8.18 |
| COc1ccccc1NC(CNS(=O)(=O)c1ccccc1)c1ccccc1 (centres undefined) | -7.68 |
| O=C(Nc1nnc(-c2ccccc2)o1)c1ccc(F)c(S(=O)(=O)N2CCOCC2)c1 | -8.44 |
| COc1ccccc1-n1cnc2cc(NCc3ccc(C(C)C)cc3)ccc21 | -5 |

| SMILES | z-score |
| --- | --- |
| CCN(CCCNC(=O)c1cc(-c2ccncc2)nc2ccccc12)c1ccccc1 | -7.74 |
| COc1ccccc1Nc1cc(C(F)(F)F)nc2c(OC)ccc(OC)c12 | -7.6 |
| CCc1nnc(NC(=O)c2ccc(S(=O)(=O)N(C)C)cc2)o1 | -1.66 |
| Cc1nc2sccn2c1-c1csc(Nc2cccc(O)c2)n1 | -0.82 |
| CC(C)CC(=O)NC(c1cccs1)c1ccc2cccnc2c1O (centres undefined) | -3.16 |
| CCCCN(CC)S(=O)(=O)c1ccc(C(=O)Nc2nc(-c3ccccn3)cs2)cc1 | -17 |
| CCCCN(C)S(=O)(=O)c1ccc(C(=O)Nc2nnc(COC)o2)cc1 | -1.58 |
| COc1cccc(CNc2ccc3c(c2)ncn3-c2ccccc2)c1OC | -4.65 |
| c1ccc2c(-c3nc(C4CCCCC4)no3)cc(-c3ccncc3)nc2c1 | -6.55 |
| COc1ccc(Nc2c(-c3ccccn3)nc3ccc(C)cn23)cc1 | -27.7 |
| CCc1cc(-c2n[nH]c(C)c2Oc2ccccc2)c(O)cc1O | -9.19 |
| CCOC(=O)c1cnc2c(C)cccc2c1Nc1ccc(N(C)C)cc1 | -20.7 |
| Cc1cc(C)n(-c2nc3ccccc3nc2Nc2ccc(N(C)C)cc2)n1 | -9.41 |
| CCN(CCCNC(=O)CN1C(=O)COc2ccc(C(C)(C)C)cc21)c1cccc(C)c1 | -12.6 |
| CCOC(=O)c1cnc2ccc(OCC)cc2c1N1CCN(c2ccccc2F)CC1 | -0.936 |
| Cc1nnc(Nc2ccc(S(=O)(=O)Nc3nccs3)cc2)c2ccccc12 | -3.34 |
| COC(=O)c1c[nH]n2c(NC3CCCCC3)c(-c3ccc(OCCC(C)C)c(OC)c3)nc12 | -12.5 |
| COc1ccc(CNc2ccc3c(c2)ncn3-c2ccc(C)cc2)cc1 | -3.41 |
| COc1cc(-c2nc(-c3ccc(C)c(C)c3)c(-c3ccc(C)c(C)c3)[nH]2)cc(OC)c1O | -0.504 |
| CC1CCN(c2oc(COc3ccc(Cl)cc3)nc2C#N)CC1 | -4.02 |
| Cc1ccc(-c2nnc(Nc3cccc(O)c3)c3ccccc23)cc1S(=O)(=O)NC(C)(C)C | -11.3 |
| O=C(O)c1c[nH]c2ccc(S(=O)(=O)NCc3ccccn3)cc2c1=O | -13.1 |
| C=CCN(CC=C)S(=O)(=O)c1ccc(C(=O)Nc2nnc(-c3ccc(Cl)s3)o2)cc1 | -7.15 |
| CCOc1ccc2nc(N3CCCC(C(=O)N4CCN(c5cccc(C)c5)C(C)C4)C3)sc2c1 (centres undefined) | -13.7 |
| Cc1[nH]c2ccc(-c3nnc(SCCO)n3-c3ccc(Br)cc3)cc2c1C | -7.64 |
| CCCCn1cnc2cc(NCc3ccc(Br)cc3)ccc21 | -21.4 |

| SMILES | z-score |
| --- | --- |
| CCC(=C(c1ccc(OC)cc1)c1ccc(OC)cc1)c1cn(CC(O)CN2CCCC2)c2ccccc12 (centres undefined) | -4.64 |
| Cc1cccc(OCCn2c(NC(=O)c3ccccc3Cl)nc3ccccc32)c1 | -7.08 |
| Cc1ccc(OCc2nc(C#N)c(N3CCN(c4ccccc4)CC3)o2)cc1 | -6.87 |
| N#Cc1nc(COc2cccc(Cl)c2)oc1N1CCCCCC1 | -3.45 |
| COc1ccc(C(NC(=O)CCc2ccccc2)c2ccc3cccnc3c2O)cc1 (centres undefined) | -3.23 |
| CC(=O)c1cccc(Nc2nc(-c3ccccn3)cs2)c1 | -12.3 |
| Cc1ccc2c(c1)Oc1cc([N+](=O)[O-])cc(Oc3ccc(Cl)cc3)c1C(=O)N2 | -14.5 |
| COc1cccc2c(S(=O)(=O)Nc3ccc(C(=O)O)cc3)ccnc12 | -12.8 |
| Cc1ccc2c(c1)Oc1cc([N+](=O)[O-])cc(Oc3ccccc3C)c1C(=O)N2 | -17.3 |
| CC(C)CC(=O)NC(c1ccccc1)c1ccc2cccnc2c1O (centres undefined) | -3.36 |
| O=C1Nc2ccccc2Oc2cc([N+](=O)[O-])cc(Oc3cccc(Cl)c3)c21 | -11.4 |
| Cc1ccc(-c2nnc(Nc3ccc(S(=O)(=O)Nc4nccs4)cc3)c3ccccc23)cc1 | -0.867 |
| CN(C)CCCN1C(=O)CCn2c(-c3ccccc3)c(-c3ccccc3)c3cccc1c32 | -7.9 |
| CCOc1ccc2nc(N3CCCC(C(=O)NCCCN4CCN(CC)CC4)C3)sc2c1 (centres undefined) | -10.6 |
| O=C(CNC1CCCCC1)Nc1c2c(nc3c1CCC3)CCCC2 | -8.78 |
| Fc1ccc(C(c2ccc(F)cc2)N2CCN(CCCc3c[nH]c4ccccc34)CC2)cc1 | -12.8 |
| CN(C)CC(=O)Nc1c2c(nc3c1CCC3)CCCC2 | -10.3 |
| COc1ccc(Nc2nc(N3CCCC3)c3ccccc3n2)cc1 | -5.02 |
| c1cncc(-c2nnc3ccc4ccccc4n23)c1 | -8.1 |
| Cc1nn(CC(=O)NCCc2c(C)[nH]c3ccc(OCc4ccccc4)cc23)c(C)c1Cl | -7.49 |
| COc1ccc(N2CCC(CNS(=O)(=O)c3cccc(Cl)c3)C2)cc1 (centres undefined) | -20.4 |
| COc1ccc(C2Sc3ccccc3NC3=C2C(=O)c2ccccc23)cc1OC (centres undefined) | -9.3 |
| CCCCN(C)S(=O)(=O)c1ccc(C(=O)Nc2nnc(C3CC3)o2)cc1 | -1.68 |
| Cc1ccccc1Nc1c(-c2ccc(N(C)C)cc2)nc2cccc(C)n12 | -5.54 |
| COc1cccc(CNc2ccc3c(c2)nc(C)n3Cc2ccccc2)c1OC | -4.35 |
| Cc1cc(C)cc(NC(=O)CSc2nccn2-c2ccc(Cl)cc2)c1 | -2.03 |

| SMILES | z-score |
| --- | --- |
| COc1ccc(CCNc2oc(COc3ccc(C)cc3)nc2C#N)cc1OC | -9.41 |
| COC(=O)c1c[nH]n2c(NC3CCCC3)c(-c3ccc(F)cc3)nc12 | -0.807 |
| COc1ccc(OC)c(NC(=O)c2c(NCc3cccs3)sc3c2CCCCC3)c1 | -8.02 |
| COc1cccc(Nc2nc(-c3ccc(Cl)c(Cl)c3)cs2)c1 | -3.98 |
| CN(CC(=O)Nc1c2c(nc3c1CCC3)CCCC2)Cc1ccccc1 | -10.1 |
| CCc1ccc(-c2nc(CSCC(=O)NC3CCCCCC3)c(C)o2)cc1 | -11.4 |
| Cc1ccc2[nH]c3c(c2c1)CCCC3NCc1ccc(Cl)cc1 (centres undefined) | -3.17 |
| COc1ccc(C2NC(C(=O)O)Cc3[nH]cnc32)cc1CSc1nc2ccccc2[nH]1 (centres undefined) | -12.3 |
| Cc1ccn2c(Nc3ccccc3C)c(-c3ccccn3)nc2c1 | -21.4 |
| Cc1ccc2nc(-c3ccccn3)c(Nc3ccc(F)cc3)n2c1 | -17 |
| O=C(CSc1nnc(-c2cccnc2)o1)Nc1ccc(Cl)c(Cl)c1 | -0.627 |
| Cc1c(C(=O)NCc2ccccn2)oc2ccc(S(=O)(=O)N3CCC4(CC3)OCCO4)cc12 | -5.41 |
| O=C(Nc1ccc2[nH]c(=O)[nH]c2c1)c1ncn[nH]1 | -16.1 |
| COc1ccc(CN2C(=O)c3cccnc3C2Nc2ccc(Br)cc2F)cc1 (centres undefined) | -10.4 |
| CCOc1cccc(CNc2ccc3[nH]c(=O)[nH]c3c2)c1OCc1ccc(Cl)cc1 | -5.87 |
| Cc1nnc(NC(=O)c2ccc(S(=O)(=O)N3CCCc4ccccc43)cc2)o1 | -1.28 |
| Cc1ccc(-n2cc(-c3ccc4c(c3)OCO4)nc2SCC(=O)Nc2cc(C)cc(C)c2)cc1 | -3.85 |
| COc1cc(C(=O)Nc2nc(-c3ccccn3)cs2)cc(OC)c1OC | -27.5 |
| CC(C)Cc1ccc(-c2csc(Nc3ccc4c(c3)OCO4)n2)cc1 | -8.89 |
| COC(=O)c1c[nH]n2c(NC3CCC(C)CC3)c(-c3ccc(OC)c(OC)c3)nc12 (centres undefined) | -0.822 |
| COc1cc(Nc2nc(-c3ccc(CC(C)C)cc3)cs2)c(OC)cc1Cl | -5.72 |
| COc1nc(OC)nc(-n2cnc(NC(=O)Nc3ccc(Cl)cc3)n2)n1 | -0.848 |
| Cc1cccn2c(Nc3ccc4c(c3)OCCO4)c(-c3ccc(Cl)cc3)nc12 | -4.18 |
| CCN(CCNC(=O)c1cc(-c2cccnc2)nc2ccccc12)c1ccccc1 | -10.4 |
| CC1CCN(Cc2cc(Cl)c3cccnc3c2O)CC1 | -35.2 |
| COc1cc(S(=O)(=O)NCCc2c(C)[nH]c3ccc(C)cc23)ccc1Cl | -0.568 |
